# Results reported in publication PMC4336329 (PLoS ONE, 2015).
# Hit rate of the full screen: of about 310,000 compounds, about 2,200 (0.71%) showed an effect of 50% or more. Effects have a minus sign here. The list shows a part of the results.
# Target: human ether-à-go-go-related gene (hERG) potassium channel (human, UniProt Q12809)
# Assay: primary screen, population patch clamp on CHO cells stably expressing hERG
# Sequence of human ether-à-go-go-related gene (hERG) potassium channel (Q12809 whole entry, looked up): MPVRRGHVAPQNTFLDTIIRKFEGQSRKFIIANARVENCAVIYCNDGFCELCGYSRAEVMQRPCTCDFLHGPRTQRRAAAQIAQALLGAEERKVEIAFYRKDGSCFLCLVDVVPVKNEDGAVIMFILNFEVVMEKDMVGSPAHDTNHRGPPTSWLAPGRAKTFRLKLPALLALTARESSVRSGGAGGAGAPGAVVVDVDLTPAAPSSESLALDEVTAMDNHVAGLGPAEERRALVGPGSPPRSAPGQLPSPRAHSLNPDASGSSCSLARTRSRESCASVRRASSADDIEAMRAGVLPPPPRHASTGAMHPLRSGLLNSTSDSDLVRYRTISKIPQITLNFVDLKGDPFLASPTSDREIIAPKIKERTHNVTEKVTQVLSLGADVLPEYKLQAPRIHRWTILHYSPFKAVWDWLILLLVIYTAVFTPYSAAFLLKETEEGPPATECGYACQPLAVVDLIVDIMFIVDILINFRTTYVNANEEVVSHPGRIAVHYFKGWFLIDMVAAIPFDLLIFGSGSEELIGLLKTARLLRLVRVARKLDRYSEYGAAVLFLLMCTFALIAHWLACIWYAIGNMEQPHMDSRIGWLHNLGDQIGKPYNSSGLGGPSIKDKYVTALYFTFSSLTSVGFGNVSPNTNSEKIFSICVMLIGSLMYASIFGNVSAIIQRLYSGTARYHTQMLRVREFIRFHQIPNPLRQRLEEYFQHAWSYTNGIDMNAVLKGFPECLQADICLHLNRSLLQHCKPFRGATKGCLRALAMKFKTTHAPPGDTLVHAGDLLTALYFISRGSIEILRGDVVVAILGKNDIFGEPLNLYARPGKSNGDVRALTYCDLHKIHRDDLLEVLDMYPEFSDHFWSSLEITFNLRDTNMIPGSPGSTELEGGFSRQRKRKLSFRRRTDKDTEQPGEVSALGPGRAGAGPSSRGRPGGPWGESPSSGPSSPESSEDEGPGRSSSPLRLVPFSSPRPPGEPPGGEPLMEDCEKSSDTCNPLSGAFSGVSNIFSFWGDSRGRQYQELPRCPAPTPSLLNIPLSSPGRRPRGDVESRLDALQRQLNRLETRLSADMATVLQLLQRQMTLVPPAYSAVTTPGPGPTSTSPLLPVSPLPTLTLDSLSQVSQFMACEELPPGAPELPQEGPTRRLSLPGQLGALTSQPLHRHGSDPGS
row,SMILES,"hERG current change (%, negative = inhibition) at 1uM [%]"
1,CC(C)(C#N)NC(=O)c1ccco1,8.11
2,O=C(CNCC1CCCCC1)Nc1ccc(N2CCCCC2)cc1.O=C(O)C(=O)O,-0.686
3,Cc1cc(C)n(-c2nc3ccccc3c(=O)n2OCC(N)=O)n1,17
4,CCOc1cc(/C=C2\C(=O)NN(c3ccccc3)C2=O)cc([N+](=O)[O-])c1O,11.7
5,Cc1cc(NC(=O)CSc2nc(N)c(NC(=O)c3ccc(F)c(F)c3)c(=O)[nH]2)no1,14.1
6,COc1ccc(N=C2SCC(c3ccc(C)cc3)=NN2CCO)cc1,10.5
7,Cc1c(N/C=C/C(=O)c2cccs2)c(=O)n(-c2ccccc2)n1C,10.1
8,CCN(CC)c1ccc(/C=N/NC(=O)Nc2nonc2N)cc1,8.11
9,Cc1c(C(=O)OCC(=O)Nc2c(C)n(C)n(-c3ccccc3)c2=O)oc2ccccc12,12.9
10,CSc1ccc(CN2C(=O)NC3(CCCCC3)C2=O)cc1,11.2
11,NC(=O)c1cc[n+](Cc2ccc([N+](=O)[O-])cc2)cc1.[Br-],10.9
12,COCCNC(=O)C1CC(c2ccc([N+](=O)[O-])cc2)=NO1 (stereo not drawn),2.69
13,CCc1cc2c(SCC(=O)NC(=O)c3cccn3C)ncnc2s1,16.3
14,Cc1ccc(NC(=S)N2CCCC(c3ccccc3)=N2)cc1,17.7
15,O=C(c1ccc(S(=O)(=O)c2ccccc2Cl)c([N+](=O)[O-])c1)N1CCN(Cc2ccccc2)CC1,-1.76
16,Cc1cc(C)n2nc(C(=O)OCC(=O)NNC(=O)c3ccc(Cl)cc3)nc2n1,13.3
17,C=CCNC(=S)Nc1ccc(OC(F)F)c(Cl)c1,2.83
18,Cc1ccc(/C=N/NC(=O)CCn2nc(C)cc2C)c(C)c1,-0.275
19,O=S(=O)(c1ccccc1)[C@@]1(c2ccccc2)C[C@@H]2ON=C(c3cccc(Br)c3)[C@@H]2C1,13.3
20,CCOc1cc(S(=O)(=O)Nc2ccccc2CC)ccc1Cl,-6.86
21,COc1cccc(N2CCN(c3ccc4nnc(CCC(=O)Nc5ccc(OC)c(OC)c5)n4n3)CC2)c1,10.5
22,NC(=O)c1cc[n+](CC(=O)NC(=O)Nc2ccccc2)cc1,9.18
23,CC1=N/C(=C\c2ccc([N+](=O)[O-])cc2)C(=O)N1c1ccc(F)cc1F,0.824

row,SMILES,"hERG current change (%, negative = inhibition) at 1uM [%]"
1,Cc1ccc(S(=O)(=O)c2c(C)nn(C(C)(C)C)c2OC(=O)c2ccc(Br)o2)cc1,15
2,CCOC(=O)Cc1nn[nH]n1,20.1
3,O=C(O[C@@H](C(=O)O)[C@@H](OC(=O)c1ccccc1)C(=O)O)c1ccccc1,13.9
4,CCCCOC(=O)C1[C@H]2C(=O)N(CCc3ccccc3)C[C@]23C=C[C@H]1O3 (stereo partly drawn),12.3
5,COC(=O)c1ccc(CN2C(=O)c3ccccc3C2=O)o1,18.8
6,Cc1ccc(S(=O)(=O)Nc2cc(C)c(O)c(S(=O)(=O)c3ccc(C)cc3)c2)cc1,-4.15
7,Cn1nnnc1SCC(=O)N1CCOCC1,16.4
8,CCOC(=O)CSc1nnc(NC(=O)c2ccc3c(c2)OCO3)s1,-2.31
9,CCC(=Nc1ccc2c(c1)CCC2)c1c(O)n(C2CCCCC2)c(=O)[nH]c1=O,-22.8
10,O=C(CCC(=O)Nc1ccccc1)N/N=C/c1cccnc1,7.89
11,Nc1ccc2c(C(F)(F)F)cc(C(F)(F)F)nc2n1,14
12,Nc1nc(Cl)cc(-c2ccccc2)n1,6.89
13,O=C(CNC(=O)c1cccc(Br)c1)N/N=C/c1cccs1,15.4
14,O=C(c1cccc(Cl)c1)N1CCN(Cc2ccc3c(c2)OCO3)CC1,6.48
15,O=C(NC1CCCCC1)C(c1ccccc1)N(C(=O)c1csnn1)C1CC1 (stereo not drawn),12.3
16,Cc1c(/C=N/NC(=O)c2ccc(Br)o2)cnn1C,17.8
17,CCC(C)(C)NC(=O)C(c1ccc(O)cc1)N(Cc1ccco1)C(=O)CCC(=O)Nc1ccccn1 (stereo not drawn),14.9
18,CCOC(=O)c1cccc(NC(=O)CSc2nnc(COc3ccc(Cl)cc3)o2)c1,17.6
19,CN1CCN(C(=O)/C(=C/c2ccco2)NC(=O)c2ccccc2)CC1,-37.1
20,CCCOC(=O)C1NC(=O)N2C(C(=O)OCCC)C(C)(C)S[C@H]12 (stereo partly drawn),11.9
21,Cc1nc(NC(=O)CSc2nnc(-c3ccncc3)n2C)sc1C,29.2
22,C=CCn1c(SCC(=O)Nc2sc3c(c2C#N)CCC3)nnc1C1COc2ccccc2O1 (stereo not drawn),12.3
